Measured values from publication PMC9911399, “Two distinct binding modes provide the RNA-binding protein RbFox with extraordinary sequence specificity”.
Residue numbers refer to the chain shown, from its start. The list shows a part of the results.

B1: GCAAAGA (DNA:RNA)
RNA: GGGAGACCGGAAUUCAGAUUGUCCGCAAAGAUUAAAUCCCGUCGUAGCCACCA
DNA 1: CAATCTGAATTCCGGTCTCCC
DNA 2: TGGTGGCTACGACGGGATT
B2: GCUUAGU (DNA:RNA)
RNA: B1 RNA with A27U, A28U, A31U
DNA 1: CAATCTGAATTCCGGTCTCCC
DNA 2: TGGTGGCTACGACGGGATT
B3: AUUCCAC (DNA:RNA)
RNA: GGGAGACCGGAAUUCAGAUUGUCCAUUCCACUUAAAUCCCGUCGUAGCCACCA
DNA 1: CAATCTGAATTCCGGTCTCCC
DNA 2: TGGTGGCTACGACGGGATT
B4: UGGUCUU (DNA:RNA)
RNA: B3 RNA with A25U, U26G, U27G, C28U, A30U, C31U
DNA 1: CAATCTGAATTCCGGTCTCCC
DNA 2: TGGTGGCTACGACGGGATT
B5: GUACGGC (DNA:RNA)
RNA: B3 RNA with A25G, U27A, C29G, A30G
DNA 1: CAATCTGAATTCCGGTCTCCC
DNA 2: TGGTGGCTACGACGGGATT
B6: CGCAUCU (DNA:RNA)
RNA: B1 RNA with G25C, C26G, A27C, A29U, G30C, A31U
DNA 1: CAATCTGAATTCCGGTCTCCC
DNA 2: TGGTGGCTACGACGGGATT
B7: CGCAGAC (DNA:RNA)
RNA: B3 RNA with A25C, U26G, U27C, C28A, C29G
DNA 1: CAATCTGAATTCCGGTCTCCC
DNA 2: TGGTGGCTACGACGGGATT
B8: CUACGUA (DNA:RNA)
RNA: B3 RNA with A25C, U27A, C29G, A30U, C31A
DNA 1: CAATCTGAATTCCGGTCTCCC
DNA 2: TGGTGGCTACGACGGGATT
B9: CAUGAUG (DNA:RNA)
RNA: B3 RNA with A25C, U26A, C28G, C29A, A30U, C31G
DNA 1: CAATCTGAATTCCGGTCTCCC
DNA 2: TGGTGGCTACGACGGGATT

molecular target: T1, RBFOX1 RRM (Homo sapiens, UniProt Q9NWB1 109-208); test: EMSA; HiTS-Eq, 1 nM pool, 10 min; buffer printed only for the single-RNA assays: 10 mM Tris pH 7.5, 150 mM NaCl, 3.4 mM EDTA, 0.001% NP-40, 30 C; settings: tags: His6 N-terminal (pET28a); label: 5' 32P
T1 sequence: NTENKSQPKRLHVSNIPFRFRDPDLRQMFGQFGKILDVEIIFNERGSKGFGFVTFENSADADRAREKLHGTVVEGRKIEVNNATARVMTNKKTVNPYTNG
Outline: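 Purified RbFox RRM, wild type or mutant, was incubated for 10 min in 50 µL with 1 nM of a 5′-radiolabelled RNA pool carrying 7 randomized nucleotides, whose flanks were annealed to DNA oligonucleotides, over a series of increasing protein concentrations. Unbound RNA was resolved on 8% native PAGE, cut out, reverse-transcribed, barcoded by PCR and sequenced on an Illumina HiSeq 2500. Relative association constants were derived from changes in read counts for each RNA species versus the control reaction and normalised to the cognate motif.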

| Binder | binding signal |
| --- | --- |
| B1 | 0.00671 KA relative to UGCAUGU |
| B2 | 0.0112 KA relative to UGCAUGU |
| B3 | 0.000512 KA relative to UGCAUGU |
| B4 | 0.0179 KA relative to UGCAUGU |
| B5 | 0.0138 KA relative to UGCAUGU |
| B6 | 0.0129 KA relative to UGCAUGU |
| B7 | 0.00766 KA relative to UGCAUGU |
| B8 | 0.00487 KA relative to UGCAUGU |
| B9 | 0.0103 KA relative to UGCAUGU |
